Measured values from the supplement of paper PMC8728848.
This is one part of the list.

Columns and labels:
Assay in all cases: glycan array binding signal (z-score within array); higher = stronger binding
Conditions in all cases: glycan notation: IUPAC condensed, linker removed
[1] = target: Fuc(a1-2)Gal(b1-4)GlcNAc(b1-3)Gal(b1-4)GlcNAc(b1-3)Gal(b1-4)GlcNAc
Method in brief: (§1)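 Columns mapping to the same glycan were averaged after glycan names were converted to IUPAC-condensed notation. The data come from 3228 arrays in the Consortium for Functional Glycomics database, limited to those with an available protein sequence. Binding is reported as a within-array Z-score averaged across arrays of one protein sequence and across linkers.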

[2] = target: Fuc(a1-2)Gal(b1-4)GlcNAc(b1-3)GalNAc
Method in brief: as §1

[3] = target: Fuc(a1-2)Gal(b1-4)GlcNAc(b1-3)[Fuc(a1-2)Gal(b1-4)GlcNAc(b1-6)]GalNAc
Method in brief: as §1

[4] = target: Fuc(a1-2)Gal(b1-4)GlcNAc(b1-3)[Fuc(a1-3)[Gal(b1-4)]GlcNAc(b1-6)]Gal(b1-4)Glc
Method in brief: as §1

[5] = target: Fuc(a1-2)Gal(b1-4)GlcNAc(b1-6)GalNAc
Method in brief: as §1

[6] = target: Fuc(a1-2)Gal(b1-4)GlcNAc6S
Method in brief: as §1

[7] = target: Fuc(a1-2)Gal(b1-4)[Fuc(a1-3)]GlcNAc
Method in brief: as §1

[8] = target: Fuc(a1-2)Gal(b1-4)[Fuc(a1-3)]GlcNAc(b1-2)Man(a1-3)[Fuc(a1-2)Gal(b1-4)[Fuc(a1-3)]GlcNAc(b1-2)Man(a1-6)]Man(b1-4)GlcNAc(b1-4)GlcNAc
Method in brief: as §1

[9] = target: Fuc(a1-2)Gal(b1-4)[Fuc(a1-3)]GlcNAc(b1-2)Man(a1-3)[Fuc(a1-2)Gal(b1-4)[Fuc(a1-3)]GlcNAc(b1-2)Man(a1-6)]Man(b1-4)GlcNAc(b1-4)[Fuc(a1-6)]GlcNAc
Method in brief: as §1

[10] = target: Fuc(a1-2)Gal(b1-4)[Fuc(a1-3)]GlcNAc(b1-2)[Fuc(a1-2)Gal(b1-4)[Fuc(a1-3)]GlcNAc(b1-4)]Man(a1-3)[Fuc(a1-2)Gal(b1-4)[Fuc(a1-3)]GlcNAc(b1-2)Man(a1-6)]Man(b1-4)GlcNAc(b1-4)GlcNAc
Method in brief: as §1

[11] = target: Fuc(a1-2)Gal(b1-4)[Fuc(a1-3)]GlcNAc(b1-3)Gal(b1-4)Glc
Method in brief: as §1

[12] = target: Fuc(a1-2)Gal(b1-4)[Fuc(a1-3)]GlcNAc(b1-3)Gal(b1-4)[Fuc(a1-3)]GlcNAc
Method in brief: as §1

[13] = target: Fuc(a1-2)Gal(b1-4)[Fuc(a1-3)]GlcNAc(b1-3)Gal(b1-4)[Fuc(a1-3)]GlcNAc(b1-3)Gal(b1-4)[Fuc(a1-3)]GlcNAc
Method in brief: as §1

[14] = target: Fuc(a1-2)Gal(b1-4)[Fuc(a1-3)]GlcNAc(b1-3)GalNAc
Method in brief: as §1

[15] = target: Fuc(a1-2)Gal(b1-4)[Fuc(a1-3)]GlcNAc(b1-3)[Fuc(a1-2)]Gal(b1-4)Glc
Method in brief: as §1

[16] = target: Fuc(a1-2)Gal(b1-4)[Fuc(a1-3)]GlcNAc(b1-3)[Neu5Ac(a2-6)Gal(b1-4)GlcNAc(b1-6)]Gal(b1-4)Glc
Method in brief: as §1

[17] = target: Fuc(a1-2)Gal3S(b1-4)GlcNAc
Method in brief: as §1

[18] = target: Fuc(a1-2)Gal6S(b1-3)GlcNAc
Method in brief: as §1

[19] = target: Fuc(a1-2)Gal6S(b1-3)GlcNAc6S
Method in brief: as §1

Fuc(a1-2)Gal6S(b1-4)Glc = target: Fuc(a1-2)Gal6S(b1-4)Glc
Method in brief: as §1

[20] = target: Fuc(a1-2)Gal6S(b1-4)Glc6S
Method in brief: as §1

[21] = target: Fuc(a1-2)Gal6S(b1-4)GlcNAc
Method in brief: as §1

Fuc(a1-2)GlcNAc = target: Fuc(a1-2)GlcNAc
Method in brief: as §1

Fuc(a1-2)[Gal(a1-3)]Gal = target: Fuc(a1-2)[Gal(a1-3)]Gal
Method in brief: as §1

[22] = target: Fuc(a1-2)[Gal(a1-3)]Gal(b1-3)GalNAc
Method in brief: as §1

[23] = target: Fuc(a1-2)[Gal(a1-3)]Gal(b1-3)GalNAc(b1-3)Gal(a1-4)Gal(b1-4)Glc
Method in brief: as §1

[24] = target: Fuc(a1-2)[Gal(a1-3)]Gal(b1-3)GlcNAc
Method in brief: as §1

[25] = target: Fuc(a1-2)[Gal(a1-3)]Gal(b1-3)GlcNAc(b1-2)Man(a1-3)[Fuc(a1-2)[Gal(a1-3)]Gal(b1-3)GlcNAc(b1-2)Man(a1-6)]Man(b1-4)GlcNAc(b1-4)GlcNAc
Method in brief: as §1

[26] = target: Fuc(a1-2)[Gal(a1-3)]Gal(b1-3)GlcNAc(b1-2)Man(a1-3)[Fuc(a1-2)[Gal(a1-3)]Gal(b1-3)GlcNAc(b1-2)Man(a1-6)]Man(b1-4)GlcNAc(b1-4)[Fuc(a1-6)]GlcNAc
Method in brief: as §1

[27] = target: Fuc(a1-2)[Gal(a1-3)]Gal(b1-3)GlcNAc(b1-3)GalNAc
Method in brief: as §1

[28] = target: Fuc(a1-2)[Gal(a1-3)]Gal(b1-3)GlcNAc(b1-6)GalNAc
Method in brief: as §1

[29] = target: Fuc(a1-2)[Gal(a1-3)]Gal(b1-4)Glc
Method in brief: as §1

[30] = target: Fuc(a1-2)[Gal(a1-3)]Gal(b1-4)GlcNAc
Method in brief: as §1

[31] = target: Fuc(a1-2)[Gal(a1-3)]Gal(b1-4)GlcNAc(b1-2)Man
Method in brief: as §1

[32] = target: Fuc(a1-2)[Gal(a1-3)]Gal(b1-4)GlcNAc(b1-2)Man(a1-3)[Fuc(a1-2)[Gal(a1-3)]Gal(b1-4)GlcNAc(b1-2)Man(a1-6)]Man(b1-4)GlcNAc(b1-4)GlcNAc
Method in brief: as §1

[33] = target: Fuc(a1-2)[Gal(a1-3)]Gal(b1-4)GlcNAc(b1-2)Man(a1-3)[Fuc(a1-2)[Gal(a1-3)]Gal(b1-4)GlcNAc(b1-2)Man(a1-6)]Man(b1-4)GlcNAc(b1-4)[Fuc(a1-6)]GlcNAc
Method in brief: as §1

[34] = target: Fuc(a1-2)[Gal(a1-3)]Gal(b1-4)GlcNAc(b1-3)Gal(b1-4)Glc
Method in brief: as §1

[35] = target: Fuc(a1-2)[Gal(a1-3)]Gal(b1-4)GlcNAc(b1-3)GalNAc
Method in brief: as §1

[36] = target: Fuc(a1-2)[Gal(a1-3)]Gal(b1-4)GlcNAc(b1-3)[Fuc(a1-2)[Gal(a1-3)]Gal(b1-4)GlcNAc(b1-6)]GalNAc
Method in brief: as §1

[37] = target: Fuc(a1-2)[Gal(a1-3)]Gal(b1-4)GlcNAc(b1-6)GalNAc
Method in brief: as §1

[38] = target: Fuc(a1-2)[Gal(a1-3)]Gal(b1-4)[Fuc(a1-3)]Glc
Method in brief: as §1

[39] = target: Fuc(a1-2)[Gal(a1-3)]Gal(b1-4)[Fuc(a1-3)]GlcNAc
Method in brief: as §1

[40] = target: Fuc(a1-2)[Gal(a1-3)]Gal(b1-4)[Fuc(a1-3)]GlcNAc(b1-3)GalNAc
Method in brief: as §1

[41] = target: Fuc(a1-2)[Gal(a1-4)]Gal(b1-4)GlcNAc
Method in brief: as §1

[42] = target: Fuc(a1-2)[GalNAc(a1-3)]Gal
Method in brief: as §1

B1: CLEC5A (Homo sapiens), Q9NY25 (protein)
chain: MNWHMIISGLIVVVLKVVGMTLFLLYFPQIFNKSNDGFTTTRSYGTVSQIFGSSSPSPNGFITTRSYGTVCPKDWEFYQARCFFLSTSESSWNESRDFCKGKGSTLAIVNTPEKLKFLQDITDAEKYFIGLIYHREEKRWRWINNSVFNGNVTNQNQNFNCATIGLTKTFDAASCDISYRRICEKNAK
For B1, the “glycan array binding signal (z-score)” value [1] was 0.158, the “glycan array binding signal (z-score)” value [2] was 0.474 and the “glycan array binding signal (z-score)” value [3] was -0.023. For the same binder, the “glycan array binding signal (z-score)” value [4] was -0.172, the “glycan array binding signal (z-score)” value [5] was 0.121 and the “glycan array binding signal (z-score)” value [6] was -0.131. The “glycan array binding signal (z-score)” value [7] was -0.07, the “glycan array binding signal (z-score)” value [8] was 0.679 and the “glycan array binding signal (z-score)” value [9] was -0.051. For the same binder, the “glycan array binding signal (z-score)” value [10] was 0.008, the “glycan array binding signal (z-score)” value [11] was -0.32 and the “glycan array binding signal (z-score)” value [12] was -0.144. For the same binder, the “glycan array binding signal (z-score)” value [13] was -0.189, the “glycan array binding signal (z-score)” value [14] was 0.198 and the “glycan array binding signal (z-score)” value [15] was -0.32. For the same binder, the “glycan array binding signal (z-score)” value [16] was -0.136, the “glycan array binding signal (z-score)” value [17] was 0.011 and the “glycan array binding signal (z-score)” value [18] was -0.07. For the same binder, the “glycan array binding signal (z-score)” value [19] was 0.437, the “glycan array binding signal (z-score)” value (Fuc(a1-2)Gal6S(b1-4)Glc) was 0.131 and the “glycan array binding signal (z-score)” value [20] was -0.512. For the same binder, the “glycan array binding signal (z-score)” value [21] was 1.13, the “glycan array binding signal (z-score)” value (Fuc(a1-2)GlcNAc) was -0.133 and the “glycan array binding signal (z-score)” value (Fuc(a1-2)[Gal(a1-3)]Gal) was -0.247. The “glycan array binding signal (z-score)” value [22] was -0.162, the “glycan array binding signal (z-score)” value [23] was -0.152 and the “glycan array binding signal (z-score)” value [24] was -0.016. The “glycan array binding signal (z-score)” value [25] was -0.16, the “glycan array binding signal (z-score)” value [26] was -0.137 and the “glycan array binding signal (z-score)” value [27] was -0.125. The “glycan array binding signal (z-score)” value [28] was -0.164, the “glycan array binding signal (z-score)” value [29] was -0.277 and the “glycan array binding signal (z-score)” value [30] was -0.453. The “glycan array binding signal (z-score)” value [31] was -0.113, the “glycan array binding signal (z-score)” value [32] was 0.116 and the “glycan array binding signal (z-score)” value [33] was -0.131. The “glycan array binding signal (z-score)” value [34] was -0.32, the “glycan array binding signal (z-score)” value [35] was -0.159 and the “glycan array binding signal (z-score)” value [36] was 2. For the same binder, the “glycan array binding signal (z-score)” value [37] was -0.177, the “glycan array binding signal (z-score)” value [38] was -0.09 and the “glycan array binding signal (z-score)” value [39] was 0.02. For the same binder, the “glycan array binding signal (z-score)” value [40] was -0.19, the “glycan array binding signal (z-score)” value [41] was -0.354 and the “glycan array binding signal (z-score)” value [42] was -0.165.
